The values below come from PubChem BioAssay AID463173 (ICCB-Longwood Screening Facility, Harvard Medical School, 2010).

Hit rate of the full screen: of about 52,000 compounds, about 4,300 (8.3%) were called active. Cut-off read from the data, not from the text of the source: active = survival mostly below about 52% (no sharp cut-off); inactive = mostly above about 56%. This is one part of the list.

The test system of this test is DeltatarO mutant. As to the kind of experiment: growth inhibition of S. aureus wild type versus tarO mutant, primary screen, teichoic acid synthesis inhibitors, RN4220, OD600 (AID 463173). Particulars: OD600, 18 h, active compounds read low; concentration not given here unless noted.
As for `CC12CN3CN(C1)CC(C)(C3)C2=O`, the survival was inactive: 95%.

In the case of `CC1CN2CCC3=C(CCCC3)C2(C)C1` (centres undefined), the survival is inactive: 77%.

For the compound `O=c1c2ccccc2nc(CN2CCCCC2)n1-c1ccccc1`, the survival was inactive: 102%.

For `c1ccc(CN2CCNCC2)nc1`, the survival was inactive: 83%.

For the compound `O=C(Nc1ccc2c(c1)OCCO2)c1cccn(Cc2ccccc2)c1=O`, the survival was inactive: 79%.

On to `COc1ccc(C=C2C(=O)NC(=S)NC2=O)cc1`, for which the survival was inactive: 96%.

Take `Cc1ccc(-c2nc(CN3C(=O)CN=C(c4ccccc4Cl)c4cc(Cl)ccc43)c(C)o2)cc1`: the survival was inactive: 74%.

Regarding `Cc1cccc(Cn2cccc(C(=O)Nc3nnc(C)s3)c2=O)c1`, the survival was inactive: 99%.

For the compound `COc1ccc(C(CN)CC(=O)O)cc1` (centres undefined), the survival was inactive: 92%.

Turning to `CCOc1ccccc1NC(=O)c1cccn(Cc2ccccc2C)c1=O`, the survival is inactive: 70%.

Turning to `CCSc1nnc(NC(=O)c2cccn(Cc3ccccc3Cl)c2=O)s1`, the survival is inactive: 79%.

With `O=CNc1nonc1NNc1nonc1NC=O`, the survival was inactive: 76%.

For `N#Cc1cc2c(nc1SCC(=O)Nc1cccc(C(F)(F)F)c1)C1CCN2CC1`, the survival is active: 4%.

On to `O=C(Cc1ccccc1)N1CCN(C2CCCC2)CC1`, for which the survival is inactive: 59%.

As for `OC1(c2cccc(F)c2)CC2CCC(C1)N2Cc1nnnn1CCc1ccccc1` (centres undefined), the survival was inactive: 85%.

As to `CC(=O)c1cccc(NC(=O)c2cccn(Cc3cccc(C)c3)c2=O)c1`, the survival is inactive: 87%.

In the case of `COc1ccc(NC(=O)CN2C(=O)C(C)N=C(c3ccccc3)c3ccccc32)cc1OC` (centres undefined), the survival was inactive: 116%.

For `Cc1[nH]c2c(C)cccc2c1CCN`, the survival is active: 37%.

In the case of `Cc1ccc(OCC(=O)Nc2ccc(Cl)cc2C(=O)c2ccccc2)c(Br)c1`, the survival was inactive: 75%.

Take `O=C(O)C12C3CCCC1C32c1ccccc1` (centres undefined): the survival was inactive: 85%.

With `COc1ccc(OCC(=O)N2CCN(Cc3cc(=O)n4nc(-c5ccc(OC)cc5)sc4n3)CC2)cc1`, the survival was inactive: 90%.

In the case of `COc1ccc(CC2C(=O)NC(=O)N(c3ccccc3)C2=O)c(OC)c1` (centres undefined), the survival is inactive: 91%.

Regarding `Cc1ccc(OCC(=O)N2CCN(CCc3ccncc3)CC2)cc1`, the survival is inactive: 86%.

In the case of `Cc1cccc(Cn2cccc(C(=O)Nc3ccc(F)cc3F)c2=O)c1`, the survival is inactive: 92%.

Regarding `COc1ccc(OCC(=O)N2CCN(Cc3ccc(SC)cc3)CC2)cc1`, the survival is inactive: 157%.

With `Cc1ccccc1-n1c(/C=C/c2ccc(N(C)C)cc2)nc2ccccc2c1=O`, the survival is active: 8%.

`O=C(c1ccc2c(c1)N(Cc1ccc(F)cc1)C(=O)c1ccccc1S2)N1CCC2(CC1)OCCO2`: the survival is inactive: 94%.

Consider `COc1ccccc1CN1CCN(Cc2ccccc2OC)CC1`, for which the survival was inactive: 77%.

Consider `CC(C)NC(C)C(=O)c1ccc2ccccc2c1` (centres undefined), for which the survival is inactive: 96%.

For `Cc1nnc(NC(=O)c2cccn(Cc3cccc(F)c3)c2=O)s1`, the survival was inactive: 76%.

Turning to `CN1C(=C2C(=O)NC(=O)NC2=O)Sc2ccccc21`, the survival is inactive: 79%.

Turning to `COc1ccc(CN2CCN(Cc3ccccc3)CC2)cc1`, the survival was inactive: 97%.

For the compound `CCN(CC)c1ccc2c3c(c(=O)oc2c1)C(c1cc2c(C)cc(C)cc2[nH]c1=O)C(C#N)=C(N)O3` (centres undefined), the survival is inactive: 91%.

On to `Cc1ccc(OCC(=O)Nc2ccc(Cl)cc2C(=O)c2ccccc2)cc1C`, for which the survival was inactive: 69%.

With `COc1cccc(-c2nn3c(=O)cc(CN4CCN(C(=O)COc5ccccc5C)CC4)nc3s2)c1`, the survival is inactive: 95%.

Regarding `CCOc1ccc(CN(CCc2ccc3c(c2)OCO3)Cc2ccc(OC)c(Br)c2)cc1`, the survival was inactive: 67%.

Take `C[N+]12CN3CN(CN(C3)C1)C2`: the survival was inactive: 81%.

Consider `Cn1c(O)c(C=Nc2ccccc2)c(=O)n(C)c1=O`, for which the survival is inactive: 98%.

With `Cc1ccccc1CN1C(=O)C(C)N=C(c2ccccc2)c2ccccc21` (centres undefined), the survival was inactive: 83%.

On to `Nc1c2c(nc3sc4c(c13)CCCC4)CCCC2`, for which the survival was inactive: 78%.

On to `CCc1ccc(OCC(=O)N2CCN(CCc3ccncc3)CC2)cc1`, for which the survival is inactive: 98%.

For the compound `Cc1ccc(C(C)C)c(OCC(=O)N2CCN(CCc3ccncc3)CC2)c1`, the survival was active: 42%.

`Cc1cccc2cc(C=C(C#N)C#N)c(Cl)nc12`: the survival was inactive: 83%.

As to `Cn1cccc1CNCCc1ccccc1`, the survival was inactive: 82%.

With `O=C(O)CCC1C(=O)NC(=O)NC1=O`, the survival was inactive: 92%.

`Cc1ccccc1-n1c(/C=C/c2c(C)[nH]c3ccccc23)nc2ccccc2c1=O`: the survival was active: 18%.

On to `CC(C(=O)c1ccc2ccccc2c1)N1CCCCC1` (centres undefined), for which the survival was inactive: 98%.

`COc1ccc(OCC(=O)N2CCN(CCc3ccncc3)CC2)cc1`: the survival was inactive: 82%.

Consider `Cc1ccccc1-n1nc(C)c2c1NC(=O)CSC2c1ccc(Cl)cc1` (centres undefined), for which the survival is active: 21%.

In the case of `O=C(Cn1cc(C(=O)c2ccccc2)c2ccccc21)NCc1ccco1`, the survival is inactive: 75%.

Regarding `Cc1cccc(-n2c(-c3ccco3)nc3ccccc3c2=O)c1`, the survival was inactive: 94%.

On to `Cc1c(C(c2ccc(Br)cc2)c2c(O)c3ccccc3oc2=O)c(=O)n(-c2ccccc2)n1C` (centres undefined), for which the survival is active: 49%.

Take `CNC(=O)Oc1c(Br)cc2sc(=O)oc2c1Br`: the survival is inactive: 109%.

With `Cc1ccc(Cn2cccc(C(=O)Nc3cc(C)on3)c2=O)cc1`, the survival was inactive: 81%.

Turning to `CN1CCCSC1=Nc1ccccc1F`, the survival was inactive: 93%.

Consider `COc1ccc(Cc2c(O)[nH]c(=S)[nH]c2=O)cc1`, for which the survival is inactive: 86%.

Turning to `CN(C)c1ccc(NC(=O)c2sc3nc4c(cc3c2N)N2CCC4CC2)cc1`, the survival was inactive: 146%.

`Cn1c(O)c(C=NCCN2CCN(C(=O)c3ccccc3)CC2)c(=O)n(C)c1=O`: the survival is inactive: 78%.

Turning to `Cc1ccc(-c2nn3c(=O)cc(CN4CCN(C(=O)COc5ccc(C)c(C)c5)CC4)nc3s2)cc1`, the survival is inactive: 81%.

On to `CCCC1=Nc2cc(C(=O)NCCCN(CC)CC)ccc2Sc2ccccc21`, for which the survival is inactive: 138%.

Regarding `Cc1ccc(-c2nc(CN3C(=O)CN=C(c4ccccc4)c4ccccc43)c(C)o2)cc1`, the survival is inactive: 49%.

`CCCC1(CCC)C(=O)NC(=Nc2ccccc2)NC1=O`: the survival was inactive: 95%.

`CN1CCN(Cc2cn3ccccc3n2)CC1`: the survival was inactive: 104%.

As to `COc1cccc(NC(=O)c2cccn(Cc3ccccc3C)c2=O)c1`, the survival was inactive: 83%.

On to `COC(=O)C1=C(C)OC(N)=C(C#N)C12C(=O)Nc1ccc(C)cc12` (centres undefined), for which the survival was inactive: 93%.

On to `COc1ccccc1C1SCC(=O)Nc2c1c(C)nn2-c1cccc(C)c1` (centres undefined), for which the survival is active: -1%.

In the case of `Cc1ccc(Cn2cccc(C(=O)Nc3ccc4c(c3)OCCO4)c2=O)cc1`, the survival is inactive: 83%.

As to `CCC(C)N1CCN(Cc2ccccc2)CC1` (centres undefined), the survival is inactive: 99%.

Consider `OC1(c2cccnc2)CCNCC1`, for which the survival is inactive: 105%.

Regarding `CCOc1ccc(CN(CCc2ccc3c(c2)OCO3)Cc2ccc(C)cc2)cc1`, the survival is inactive: 46%.

As for `CC(C)Cc1nc2cccnc2n1C1CCNCC1`, the survival is inactive: 120%.

With `Cc1cccc(-n2nc(C)c3c2NC(=O)CSC3c2ccccc2Cl)c1` (centres undefined), the survival was active: 43%.

As to `Cc1cccc(CN2C(=O)CN=C(c3ccccc3)c3ccccc32)c1`, the survival is inactive: 73%.

Turning to `COc1ccc(-n2c(/C=C/c3cccc(F)c3)nc3ccccc3c2=O)cc1Cl`, the survival was inactive: 85%.

For `CCOC(=O)c1[nH]c(C)c(C=C(C#N)C#N)c1C`, the survival was inactive: 58%.

Turning to `Cc1ccc(NC(=O)Cn2cc(C(=O)c3ccccc3)c3ccccc32)c(C)c1`, the survival is inactive: 62%.

In the case of `COc1cccc(C2SCC(=O)Nc3c2c(C)nn3-c2ccc(C)c(Cl)c2)c1OC` (centres undefined), the survival was inactive: 55%.

On to `C=C1N2CCC(CC2)C1(O)c1ccc(C)cc1` (centres undefined), for which the survival is active: 44%.

Take `Cc1cccc(-c2nn3c(=O)cc(CN4CCN(C(=O)COc5ccc(Cl)cc5)CC4)nc3s2)c1`: the survival was inactive: 107%.

On to `Cc1cccc(CN2CCN(C(=O)COc3ccccc3)CC2)c1`, for which the survival is inactive: 66%.

On to `CCn1cc(C=C(C#N)C#N)c2ccccc21`, for which the survival was inactive: 93%.

Consider `O=c1c2ccccc2nc(/C=C/c2ccccc2F)n1-c1cccc(O)c1`, for which the survival is active: 2%.

With `CCc1nc(SC)ncc1C(=O)Nc1ccc(Cl)cc1C(=O)c1ccccc1`, the survival was inactive: 80%.

With `O=C(Nc1ccc2c(c1)OCO2)c1cccn(Cc2cccc([N+](=O)[O-])c2)c1=O`, the survival is inactive: 91%.

For the compound `CN1CCN(C(=O)COc2cccc3ccccc23)CC1`, the survival was inactive: 98%.

In the case of `COc1ccc(NC(=O)CCc2nc(C3=CCN(Cc4cccc(Cl)c4)CC3)no2)c(OC)c1`, the survival was inactive: 117%.

Take `O=S1(=O)N(Cc2ccccc2Cl)CCCN1Cc1ccccc1Cl`: the survival is active: 10%.

For `O=C1/C(=C\c2cc3c(cc2Cl)OCO3)N2CCC1CC2`, the survival is inactive: 87%.

`Cc1ccccc1OCC(=O)N1CCN(CCc2ccccn2)CC1`: the survival is inactive: 56%.

Take `Cc1cccc2sc(NC(=O)c3cccn(Cc4ccccc4)c3=O)nc12`: the survival is inactive: 99%.

As to `CCCC1=Nc2cc(C(=O)NC3CCC(C)CC3)ccc2Sc2ccccc21` (centres undefined), the survival was active: 39%.

As for `O=C(CN1C(=O)CN=C(c2ccccc2)c2ccccc21)Nc1cccc(C(F)(F)F)c1`, the survival was inactive: 57%.

`Cc1cc(NC(=O)c2cccn(Cc3ccccc3)c2=O)no1`: the survival is inactive: 96%.

With `Nc1c(C(=O)Nc2cccc(Br)c2)sc2nc3c(cc12)N1CCC3CC1`, the survival was active: 40%.

`c1cncc(C2CCCCN2Cc2ccc3c(c2)OCO3)c1` (centres undefined): the survival was inactive: 97%.

With `CC(C)n1cc(C(=O)N(C2CC2)C(C(=O)NC2CCCC2)c2ccccc2)cn1` (centres undefined), the survival is inactive: 101%.

As for `CC(N)Cc1cn(Cc2ccccc2)c2ccccc12` (centres undefined), the survival was inactive: 112%.

As for `CNCCCc1ccccc1`, the survival was inactive: 95%.

For `N#CC(C#N)=Cc1ccc(Sc2ccccc2)o1`, the survival is inactive: 72%.

In the case of `CN1CCc2c(C#N)c(N)n(N)c(=S)c2C1`, the survival was inactive: 103%.

With `COC1CCCCC1NC1CCCC1` (centres undefined), the survival was inactive: 66%.

On to `c1coc(CN2CCNCC2)c1`, for which the survival was inactive: 73%.

As for `CN1CCc2c(C#N)c(Cl)nc(NCc3ccccc3)c2C1`, the survival is inactive: 94%.

`O=C1C2CN3CN(C2)CC1(c1ccccc1)C3`: the survival is inactive: 89%.
